Results published in a compilation of properties of binary mixtures (doi:10.1080/00319100600744993).
Some of these densities may be calculated back from excess volumes.

Experiment: xn = mol fraction of the nth substance listed
Conditions: 298.15 K, 101 kPa

Q: Which mass density (x1 = 1) does the source give for `CCO` + CCCCCC[n+]1ccn(C)c1.[Cl-] here?
A: Its mass density is 785.4 kg/m3.

Q: For `CCCCCC[n+]1ccn(C)c1.[Cl-]` + O, which mass density (x2 = 0.3013) is on record?
A: Its mass density is 1042.2 kg/m3.

Q: What about the mass density (x2 = 0.389) of the same molecule?
A: The mass density was 1042.3 kg/m3.

Q: What about the mass density (x2 = 0.9088) of the same molecule?
A: The mass density was 1023.6 kg/m3.

Q: Which mass density (x2 = 0) does the source give for `CCCCCC[n+]1ccn(C)c1.[Cl-]` + CCO here?
A: The mass density was 1040.4 kg/m3.

Q: What about the mass density (x2 = 0.098) of the same molecule?
A: Its mass density is 1032.8 kg/m3.

Q: And the mass density (x2 = 0.196)?
A: Its mass density is 1024 kg/m3.

Q: What about the mass density (x2 = 0.2898) of the same molecule?
A: The mass density was 1014 kg/m3.

Q: And the mass density (x2 = 0.568)?
A: Its mass density is 972.7 kg/m3.

Q: And the mass density (x2 = 0.903)?
A: Its mass density is 857.5 kg/m3.

Q: And the mass density (x2 = 0.9047)?
A: Its mass density is 857 kg/m3.

Q: What about the mass density (x2 = 0.9445) of the same molecule?
A: The mass density was 831.5 kg/m3.
